Measurements taken from publication PMC9911399, “Two distinct binding modes provide the RNA-binding protein RbFox with extraordinary sequence specificity”.
Numbering of substitutions follows the chain as printed; changes in the protein carry UniProt numbers. This is one part of the list.

T1: RBFOX1 RRM (Homo sapiens, UniProt Q9NWB1 109-208)
T1 sequence: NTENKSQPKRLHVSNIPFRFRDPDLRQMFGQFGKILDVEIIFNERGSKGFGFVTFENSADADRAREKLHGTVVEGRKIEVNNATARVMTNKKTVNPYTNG

B1: GCAAUAU (DNA:RNA)
RNA: GGGAGACCGGAAUUCAGAUUGUCCGCAAUAUUUAAAUCCCGUCGUAGCCACCA
DNA 1: CAATCTGAATTCCGGTCTCCC
DNA 2: TGGTGGCTACGACGGGATT
B2: CCCCUGC (DNA:RNA)
RNA: B1 RNA with G25C, A27C, A28C, A30G, U31C
DNA 1: CAATCTGAATTCCGGTCTCCC
DNA 2: TGGTGGCTACGACGGGATT
B3: AUCCUGC (DNA:RNA)
RNA: B1 RNA with G25A, C26U, A27C, A28C, A30G, U31C
DNA 1: CAATCTGAATTCCGGTCTCCC
DNA 2: TGGTGGCTACGACGGGATT
B4: GCUAUAU (DNA:RNA)
RNA: B1 RNA with A27U
DNA 1: CAATCTGAATTCCGGTCTCCC
DNA 2: TGGTGGCTACGACGGGATT
B5: UGUUCUC (DNA:RNA)
RNA: GGGAGACCGGAAUUCAGAUUGUCCUGUUCUCUUAAAUCCCGUCGUAGCCACCA
DNA 1: CAATCTGAATTCCGGTCTCCC
DNA 2: TGGTGGCTACGACGGGATT
B6: AACGGCA (DNA:RNA)
RNA: GGGAGACCGGAAUUCAGAUUGUCCAACGGCAUUAAAUCCCGUCGUAGCCACCA
DNA 1: CAATCTGAATTCCGGTCTCCC
DNA 2: TGGTGGCTACGACGGGATT
B7: AUGCGAA (DNA:RNA)
RNA: B6 RNA with A26U, C27G, G28C, C30A
DNA 1: CAATCTGAATTCCGGTCTCCC
DNA 2: TGGTGGCTACGACGGGATT
B8: UCAGGGA (DNA:RNA)
RNA: B6 RNA with A25U, A26C, C27A, C30G
DNA 1: CAATCTGAATTCCGGTCTCCC
DNA 2: TGGTGGCTACGACGGGATT
B9: UUUCACU (DNA:RNA)
RNA: B5 RNA with G26U, U28C, C29A, U30C, C31U
DNA 1: CAATCTGAATTCCGGTCTCCC
DNA 2: TGGTGGCTACGACGGGATT
B10: CUGGAGG (DNA:RNA)
RNA: B6 RNA with A25C, A26U, C27G, G29A, C30G, A31G
DNA 1: CAATCTGAATTCCGGTCTCCC
DNA 2: TGGTGGCTACGACGGGATT
B11: AUUGUGA (DNA:RNA)
RNA: B6 RNA with A26U, C27U, G29U, C30G
DNA 1: CAATCTGAATTCCGGTCTCCC
DNA 2: TGGTGGCTACGACGGGATT
B12: UUAAGUG (DNA:RNA)
RNA: B1 RNA with G25U, C26U, U29G, A30U, U31G
DNA 1: CAATCTGAATTCCGGTCTCCC
DNA 2: TGGTGGCTACGACGGGATT
B13: GGGAGUA (DNA:RNA)
RNA: B6 RNA with A25G, A26G, C27G, G28A, C30U
DNA 1: CAATCTGAATTCCGGTCTCCC
DNA 2: TGGTGGCTACGACGGGATT
B14: CGGCCUC (DNA:RNA)
RNA: B5 RNA with U25C, U27G, U28C
DNA 1: CAATCTGAATTCCGGTCTCCC
DNA 2: TGGTGGCTACGACGGGATT
B15: UUGACGU (DNA:RNA)
RNA: B1 RNA with G25U, C26U, A27G, U29C, A30G
DNA 1: CAATCTGAATTCCGGTCTCCC
DNA 2: TGGTGGCTACGACGGGATT
B16: GGGGAUG (DNA:RNA)
RNA: B5 RNA with U25G, U27G, U28G, C29A, C31G
DNA 1: CAATCTGAATTCCGGTCTCCC
DNA 2: TGGTGGCTACGACGGGATT
B17: CAUGUGA (DNA:RNA)
RNA: B6 RNA with A25C, C27U, G29U, C30G
DNA 1: CAATCTGAATTCCGGTCTCCC
DNA 2: TGGTGGCTACGACGGGATT
B18: ACACCCA (DNA:RNA)
RNA: B6 RNA with A26C, C27A, G28C, G29C
DNA 1: CAATCTGAATTCCGGTCTCCC
DNA 2: TGGTGGCTACGACGGGATT
B19: GCAAGAC (DNA:RNA)
RNA: B1 RNA with U29G, U31C
DNA 1: CAATCTGAATTCCGGTCTCCC
DNA 2: TGGTGGCTACGACGGGATT
B20: CGUCAGG (DNA:RNA)
RNA: B5 RNA with U25C, U28C, C29A, U30G, C31G
DNA 1: CAATCTGAATTCCGGTCTCCC
DNA 2: TGGTGGCTACGACGGGATT
B21: AUCCAGA (DNA:RNA)
RNA: B6 RNA with A26U, G28C, G29A, C30G
DNA 1: CAATCTGAATTCCGGTCTCCC
DNA 2: TGGTGGCTACGACGGGATT
B22: GAAUUGA (DNA:RNA)
RNA: B1 RNA with C26A, A28U, A30G, U31A
DNA 1: CAATCTGAATTCCGGTCTCCC
DNA 2: TGGTGGCTACGACGGGATT
B23: ACCAAAA (DNA:RNA)
RNA: B6 RNA with A26C, G28A, G29A, C30A
DNA 1: CAATCTGAATTCCGGTCTCCC
DNA 2: TGGTGGCTACGACGGGATT
B24: UUGCGUU (DNA:RNA)
RNA: B5 RNA with G26U, U27G, U28C, C29G, C31U
DNA 1: CAATCTGAATTCCGGTCTCCC
DNA 2: TGGTGGCTACGACGGGATT
B25: CGGCGUA (DNA:RNA)
RNA: B6 RNA with A25C, A26G, C27G, G28C, C30U
DNA 1: CAATCTGAATTCCGGTCTCCC
DNA 2: TGGTGGCTACGACGGGATT
B26: CAAGUGC (DNA:RNA)
RNA: B6 RNA with A25C, C27A, G29U, C30G, A31C
DNA 1: CAATCTGAATTCCGGTCTCCC
DNA 2: TGGTGGCTACGACGGGATT
B27: CUAGUCC (DNA:RNA)
RNA: B6 RNA with A25C, A26U, C27A, G29U, A31C
DNA 1: CAATCTGAATTCCGGTCTCCC
DNA 2: TGGTGGCTACGACGGGATT
B28: AUGAGGU (DNA:RNA)
RNA: B6 RNA with A26U, C27G, G28A, C30G, A31U
DNA 1: CAATCTGAATTCCGGTCTCCC
DNA 2: TGGTGGCTACGACGGGATT
B29: CUGUGUC (DNA:RNA)
RNA: B5 RNA with U25C, G26U, U27G, C29G
DNA 1: CAATCTGAATTCCGGTCTCCC
DNA 2: TGGTGGCTACGACGGGATT
B30: UCUGCAA (DNA:RNA)
RNA: B5 RNA with G26C, U28G, U30A, C31A
DNA 1: CAATCTGAATTCCGGTCTCCC
DNA 2: TGGTGGCTACGACGGGATT
B31: UGGCUCC (DNA:RNA)
RNA: B5 RNA with U27G, U28C, C29U, U30C
DNA 1: CAATCTGAATTCCGGTCTCCC
DNA 2: TGGTGGCTACGACGGGATT

biological target: T1, RBFOX1 RRM; assay: EMSA; HiTS-Eq, 1 nM pool, 10 min; buffer printed only for the single-RNA assays: 10 mM Tris pH 7.5, 150 mM NaCl, 3.4 mM EDTA, 0.001% NP-40, 30 C; conditions: tags: His6 N-terminal (pET28a); label: 5' 32P
Procedure, shortened: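 Purified wild-type or mutant RbFox RRM at increasing concentrations was equilibrated with 1 nM of 5′-radiolabelled RNA carrying 7 randomized nucleotides for 10 min in 50 µL. Unbound RNA was separated by 8% native PAGE and sequenced. Relative association constants came from read-count changes of each RNA species compared with the control reaction, normalised to the cognate motif.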

Row | Binder | binding signal
1 | B1 | 0.00254 KA relative to UGCAUGU
2 | B2 | 0.00603 KA relative to UGCAUGU
3 | B3 | 0.00705 KA relative to UGCAUGU
4 | B4 | 0.0037 KA relative to UGCAUGU
5 | B5 | 0.0181 KA relative to UGCAUGU
6 | B6 | 0.0109 KA relative to UGCAUGU
7 | B7 | 0.0081 KA relative to UGCAUGU
8 | B8 | 0.00616 KA relative to UGCAUGU
9 | B9 | 0.00695 KA relative to UGCAUGU
10 | B10 | 0.0136 KA relative to UGCAUGU
11 | B11 | 0.0109 KA relative to UGCAUGU
12 | B12 | 0.0196 KA relative to UGCAUGU
13 | B13 | 0.0237 KA relative to UGCAUGU
14 | B14 | 0.0105 KA relative to UGCAUGU
15 | B15 | 0.0142 KA relative to UGCAUGU
16 | B16 | 0.0389 KA relative to UGCAUGU

Row | Binder | binding signal
17 | B17 | 0.00902 KA relative to UGCAUGU
18 | B18 | 0.00153 KA relative to UGCAUGU
19 | B19 | 0.0118 KA relative to UGCAUGU
20 | B20 | 0.0101 KA relative to UGCAUGU
21 | B21 | 0.00441 KA relative to UGCAUGU
22 | B22 | 0.0128 KA relative to UGCAUGU
23 | B23 | 0.00177 KA relative to UGCAUGU
24 | B24 | 0.0205 KA relative to UGCAUGU
25 | B25 | 0.0106 KA relative to UGCAUGU
26 | B26 | 0.00813 KA relative to UGCAUGU
27 | B27 | 0.00439 KA relative to UGCAUGU
28 | B28 | 0.0122 KA relative to UGCAUGU
29 | B29 | 0.018 KA relative to UGCAUGU
30 | B30 | 0.0129 KA relative to UGCAUGU
31 | B31 | 0.00985 KA relative to UGCAUGU
